Test results: patent US20160031967A1 (Affibody, published 2016)
Positions count from the first letter of the chain named. Names may count otherwise.

B1: Z13747-ABD fusion (designed binder)
chain: AQHDEALEVDAKYAKEIEEAGHEIRWLPNLTFDQRVAFIHKLRDDPSQSSELLSEAKKLNDSQAPKVDYVLAEAKVLANRELDKYGVSDYYKNLINNAKTVEGVKALIDEILAALPYVPG
notes: domain: GA3; periplasmic Z-ABD fusion
B2: Z13799-ABD fusion (designed binder)
chain: B1 chain with I17S, E19L, G21A, H40W
notes: as for B1
B3: Z13721-ABD fusion (designed binder)
chain: B1 chain with I17K, E19R, G21A
notes: as for B1
B4: Z13845-ABD fusion (designed binder)
chain: B1 chain with I17N, E18D, E19D, G21A
notes: as for B1
B5: Z13823-ABD fusion (designed binder)
chain: B1 chain with I17H, E18D, E19D, G21A
notes: as for B1
B6: Z13842-ABD fusion (designed binder)
chain: B1 chain with E18S, E19Q, G21A
notes: as for B1
B7: Z13749-ABD fusion (designed binder)
chain: B1 chain with I17L, E18Q, E19T, G21S
notes: as for B1
B8: Z13751-ABD fusion (designed binder)
chain: B1 chain with I17S, E18A, E19S
notes: as for B1
B9: Z13875-ABD fusion (designed binder)
chain: B1 chain with I17N, E18A, E19A, G21A
notes: as for B1
B10: Z13838-ABD fusion (designed binder)
chain: B1 chain with E18S, E19D, G21A
notes: as for B1
B11: Z13742-ABD fusion (designed binder)
chain: B1 chain with I17L, E18S, E19T, G21A
notes: as for B1
B12: Z13720-ABD fusion (designed binder)
chain: B1 chain with I17Q, E18S, E19A, G21A, R43N
notes: as for B1
B13: Z13782-ABD fusion (designed binder)
chain: B1 chain with I17R, E19Q, G21S
notes: as for B1
B14: Z13725-ABD fusion (designed binder)
chain: B1 chain with I17W, E18D, G21A, R43K
notes: as for B1
B15: Z13740-ABD fusion (designed binder)
chain: B1 chain with I17S, E18Q
notes: as for B1
B16: Z13796-ABD fusion (designed binder)
chain: B1 chain with I17R, E18A, G21A
notes: as for B1
B17: Z13824-ABD fusion (designed binder)
chain: B1 chain with I17W, E18Y, E19S, G21A
notes: as for B1
B18: Z13758-ABD fusion (designed binder)
chain: B1 chain with I17V, E18Q, G21A, R43W
notes: as for B1
B19: Z13808-ABD fusion (designed binder)
chain: B1 chain with I17T, E18A, E19N, G21A
notes: as for B1
B20: Z13750-ABD fusion (designed binder)
chain: B1 chain with I17Q, E18D, E19S, G21A, H40R
notes: as for B1
B21: Z13860-ABD fusion (designed binder)
chain: B1 chain with E18S, E19D, G21K, R43D
notes: as for B1
B22: Z13865-ABD fusion (designed binder)
chain: B1 chain with I17H, E18L, E19N, G21A
notes: as for B1
B23: Z13776-ABD fusion (designed binder)
chain: B1 chain with E18Q
notes: as for B1
B24: Z13792-ABD fusion (designed binder)
chain: B1 chain with E19V, G21A
notes: as for B1
B25: Z13866-ABD fusion (designed binder)
chain: B1 chain with I17W, E18L, E19D, G21A
notes: as for B1
B26: Z13773-ABD fusion (designed binder)
chain: B1 chain with I17Y, E18V, E19D, H40R
notes: as for B1
B27: Z13736-ABD fusion (designed binder)
chain: B1 chain with I17W, E18A, G21A
notes: as for B1
B28: Z13846-ABD fusion (designed binder)
chain: B1 chain with I17S, E19I, H40R
notes: as for B1
B29: Z13777-ABD fusion (designed binder)
chain: B1 chain with I17S, E18A, E19T, G21A
notes: as for B1
B30: Z13728-ABD fusion (designed binder)
chain: B1 chain with E19N, G21A, H40W
notes: as for B1
B31: Z07918-ABD fusion (designed binder)
chain: B1 chain with I17Q, E18D, E19A, G21A, R43A
notes: as for B1
B32: Z11948-G4S-Z11948 (designed binder)
chain: AEAKYAKEQDAAAHEIRWLPNLTFDQRVAFIHKLADDPSQSSELLSEAKKLNDSQAPKGTGGGGSPRAEAKYAKEQDAAAHEIRWLPNLTFDQRVAFIHKLADDPSQSSELLSEAKKLNDSQAPKLEHHHHHH
notes: Homodimeric construct in one chain
B33: Z11948-(G4S)3-Z11948 (designed binder)
chain: AEAKYAKEQDAAAHEIRWLPNLTFDQRVAFIHKLADDPSQSSELLSEAKKLNDSQAPKGTGGGGSGGGGSGGGGSAEAKYAKEQDAAAHEIRWLPNLTFDQRVAFIHKLADDPSQSSELLSEAKKLNDSQAPKLEHHHHHH
notes: as for B32
B34: His6-tagged Z10109 (designed binder)
chain: MGSSHHHHHHLQVDAKYAKEANTAAHEIRWLPNLTFDQRVAFIRKLWDDPSQSSELLSEAKKLNDSQAPKVD
B35: His6-tagged Z13616 (designed binder)
chain: B34 chain with A21W, N22Q, T23Q, R44H, W47R
B36: His6-tagged Z13669 (designed binder)
chain: B34 chain with A21L, N22A, T23S, A25G, R44H, W47R
B37: His6-tagged Z13583 (designed binder)
chain: B34 chain with A21L, N22E, T23K, A25G, R44H, W47R
B38: His6-tagged Z13578 (designed binder)
chain: B34 chain with A21W, N22T, T23D, R44H, W47R
B39: His6-tagged Z13592 (designed binder)
chain: B34 chain with A21V, N22D, T23I, R44H, W47R
B40: His6-tagged Z13674 (designed binder)
chain: B34 chain with A21I, N22E, T23D, A25G, R44H, W47R
B41: His6-tagged Z07909 (designed binder)
chain: B34 chain with A21R, N22Q, T23E, R44V, W47L
B42: His6-tagged Z10111 (designed binder)
chain: B34 chain with A21D, N22D, F36Y, D37E, V40W, R44H, W47Y
B43: His6-tagged Z13654 (designed binder)
chain: B34 chain with A21L, N22E, T23A, A25K, R44H, W47D
B44: His6-tagged Z13675 (designed binder)
chain: B34 chain with A21N, N22Q, T23A, R44H, W47R
B45: His6-tagged Z13993 (designed binder)
chain: B34 chain with N22G, T23R, F36W, R44W, W47R

Biological target: T1, human FcRn (Biorbyt, cat. no. orb84388) (human, UniProt P55899 24-297; P61769 21-119, limits assumed)
T1 construct: Bought protein; Biotinylated in AlphaLISA and ELISA; also called biotinylated human FcRn
Test: ELISA titration of biotinylated human FcRn, pH 7.4
Method: (§1) ELISA KD analysis of FcRn binding Z variants: A selection of FcRn binders was subjected to an analysis of the response against a dilution series of biotinylated human FcRn using ELISA at both pH 6.0 and pH 7.4 as described above. […] As a background control, all Z variants were also assayed with no target protein added. […] Data were analyzed using GraphPad Prism 5 and non-linear regression and KD values (the half maximal effective concentration) were calculated.
(§2) Periplasm samples were incubated with a serial dilution of biotinylated human FcRn.

In order of rising Kd:
1. B1  2.3 nM
2. B25  2.8 nM
3. B3  2.9 nM
4. B24  2.9 nM
5. B27  3 nM
6. B9  3.4 nM
7. B5  3.8 nM
8. B8  3.8 nM
9. B17  3.8 nM
10. B4  4.2 nM
11. B13  4.2 nM
12. B16  4.2 nM
13. B28  4.3 nM
14. B29  4.6 nM
15. B14  4.9 nM
16. B26  4.9 nM
17. B15  5 nM
18. B10  5.4 nM
19. B6  5.5 nM
20. B19  5.5 nM
21. B23  5.5 nM
22. B2  5.6 nM
23. B22  5.6 nM
24. B18  6.5 nM
25. B30  6.7 nM
26. B11  7.6 nM
27. B20  8.4 nM
28. B21  8.7 nM
29. B7  12 nM
30. B12  450 nM

Biological target: T2, human PSMA (in house produced) (human, UniProt Q04609 44-750, limits assumed)
T2 construct: Biotinylated
T2 sequence (Q04609 44-750 limits assumed): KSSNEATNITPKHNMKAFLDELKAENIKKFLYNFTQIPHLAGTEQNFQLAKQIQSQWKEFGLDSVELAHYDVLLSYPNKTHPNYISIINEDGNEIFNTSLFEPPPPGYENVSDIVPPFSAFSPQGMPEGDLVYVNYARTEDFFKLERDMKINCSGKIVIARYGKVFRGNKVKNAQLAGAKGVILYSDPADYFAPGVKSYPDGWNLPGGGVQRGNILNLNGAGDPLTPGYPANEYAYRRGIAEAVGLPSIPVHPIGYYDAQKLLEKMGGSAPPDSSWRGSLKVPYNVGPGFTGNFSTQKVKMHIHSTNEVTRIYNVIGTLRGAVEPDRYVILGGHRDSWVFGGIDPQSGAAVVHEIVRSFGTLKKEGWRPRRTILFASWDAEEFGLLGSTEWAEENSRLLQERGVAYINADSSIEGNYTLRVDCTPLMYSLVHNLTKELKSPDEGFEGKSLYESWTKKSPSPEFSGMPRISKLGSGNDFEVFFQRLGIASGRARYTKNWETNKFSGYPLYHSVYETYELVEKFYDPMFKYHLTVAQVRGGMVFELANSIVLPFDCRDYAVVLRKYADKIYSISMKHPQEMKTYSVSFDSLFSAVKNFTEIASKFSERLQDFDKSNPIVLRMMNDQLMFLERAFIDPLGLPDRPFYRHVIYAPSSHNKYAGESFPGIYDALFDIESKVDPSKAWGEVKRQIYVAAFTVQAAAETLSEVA
Test: ELISA, pH 6.0 and pH 7.4

B31: no binding (tested: 2 µg/ml).

Biological target: T1, human FcRn (Biorbyt, cat. no. orb84388)
T1 sequence (P55899 24-297 limits assumed, chain 1 of 2): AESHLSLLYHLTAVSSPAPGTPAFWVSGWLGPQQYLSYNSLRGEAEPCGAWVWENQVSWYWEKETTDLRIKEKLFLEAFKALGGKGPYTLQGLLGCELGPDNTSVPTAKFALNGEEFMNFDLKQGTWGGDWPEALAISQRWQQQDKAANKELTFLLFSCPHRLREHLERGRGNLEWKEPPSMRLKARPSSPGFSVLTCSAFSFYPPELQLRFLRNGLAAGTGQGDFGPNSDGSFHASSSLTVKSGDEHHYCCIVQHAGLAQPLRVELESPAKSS
T1 sequence (P61769 21-119 limits assumed, chain 2 of 2, further chain): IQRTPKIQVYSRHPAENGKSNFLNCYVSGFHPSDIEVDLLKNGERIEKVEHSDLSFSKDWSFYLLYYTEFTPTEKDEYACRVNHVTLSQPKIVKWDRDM
Test: AlphaLISA blocking of IgG (Roactemra) binding to biotinylated human FcRn, pH 6.0
Method: Stepwise serial dilutions 1:3 of His-tagged Z variants to final concentrations of 250 nM to 38 pM were made in a 384-well plate (Perkin Elmer, cat. no. G6005350) and incubated for 45 min with 10 nM biotinylated human FcRn (Biorbyt, cat. no. orb84388; biotinylated essentially as described in Example 2) in AlphaLISA buffer (Perkin Elmer, cat. no. AL000F) adjusted to pH 6.0 using HCl. IgG-coated Acceptor beads were added to a final concentration of 10 μM and incubated for 45 min. Finally, streptavidin coated Donor beads (Perkin Elmer, cat. no. 6772002) were added to a final concentration of 40 μg/ml and incubated for 30 min. All incubations were performed at RT in the dark. The plate was analyzed in the EnSpire instrument and the IC50 values were calculated using GraphPad Prism 5.

In order of falling IC50:
1. B45  130 nM
2. B34  57 nM
3. B41  46 nM
4. B42  46 nM
5. B38  12 nM
6. B44  8.2 nM
7. B35  7.4 nM
8. B39  6.4 nM
9. B36  5.2 nM
10. B43  3.5 nM
11. B37  2.7 nM
12. B40  2.5 nM
13. B33  0.41 nM
14. B32  0.38 nM

Biological target: T1, human FcRn (Biorbyt, cat. no. orb84388)
Test: ELISA titration of biotinylated human FcRn, pH 6.0
Method: as §1, §2

In order of falling Kd:
1. B5  2.9 nM
2. B7  2.8 nM
3. B20  2.7 nM
4. B4  2.6 nM
5. B10  2.6 nM
6. B30  2.6 nM
7. B12  2.5 nM
8. B22  2.5 nM
9. B26  2.5 nM
10. B11  2.4 nM
11. B19  2.4 nM
12. B29  2.4 nM
13. B16  2.3 nM
14. B21  2.3 nM
15. B28  2.3 nM
16. B6  2.2 nM
17. B13  2.2 nM
18. B23  2.2 nM
19. B8  2 nM
20. B9  2 nM
21. B15  2 nM
22. B24  2 nM
23. B25  2 nM
24. B2  1.9 nM
25. B3  1.9 nM
26. B17  1.9 nM
27. B18  1.9 nM
28. B14  1.8 nM
29. B27  1.7 nM
30. B1  1.3 nM
